Patent publication US20250270341A1 (Alector, published 2025)

Experiments:
Experiment in all cases: ELISA, 1 ug/ml
huCD98hc ECD Avi-His = target: T1, huCD98hc ECD Avi-His (human, UniProt P08195 105-529)
T1 construct: biotinylated on the Avi tag where captured on streptavidin; also called Human CD98-AVI-His; Human CD98hc-AVI-His
T1 sequence: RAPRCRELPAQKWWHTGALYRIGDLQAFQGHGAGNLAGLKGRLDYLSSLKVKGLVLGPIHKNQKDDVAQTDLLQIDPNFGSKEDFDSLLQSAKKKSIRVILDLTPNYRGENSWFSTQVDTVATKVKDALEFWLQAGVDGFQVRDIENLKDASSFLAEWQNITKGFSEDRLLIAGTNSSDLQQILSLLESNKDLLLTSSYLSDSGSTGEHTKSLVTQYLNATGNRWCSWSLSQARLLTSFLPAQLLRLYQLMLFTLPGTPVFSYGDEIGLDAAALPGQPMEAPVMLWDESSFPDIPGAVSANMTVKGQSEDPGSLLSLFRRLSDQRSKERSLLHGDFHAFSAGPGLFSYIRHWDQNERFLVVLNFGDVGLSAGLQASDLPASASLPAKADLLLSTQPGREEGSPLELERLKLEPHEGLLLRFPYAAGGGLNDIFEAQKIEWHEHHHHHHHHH
Experimental: (§1) To determine binding retention of reformatted 2+1 anti-CD98hc bispecific antibodies by ELISA, high binding ELISA plates (Thermo Fisher) were coated with streptavidin (1 μg/ml, Thermo Fisher) overnight at 4° C. Plates were then washed three times with phosphate buffered saline with 0.05% tween-20 (PBST) and incubated with block buffer (PBS+1% BSA, 1 h, room temperature). Plates were washed three times again with PBST and incubated with biotinylated human, cyno, and mouse CD98hc and an irrelevant antigen, human transferrin receptor (1 μg/ml, 1 h, room temperature). Plates were washed three times again with PBST and incubated with anti-CD98hc antibodies (1 μg/ml, 1 h, room temperature). Plates were washed three times again with PBST and incubated with a secondary detection antibody, anti-human horseradish peroxidase conjugated antibody (1:5000 dilution, 30 min, room temperature). Plates were washed three times one last time and incubated with TMB-ELISA Substrate Solution (Thermo Fisher) and then quenched with H₂SO₄. Anti-CD98hc binding was then analyzed by quantifying optical density at 450 nm (OD₄₅₀) using the SpectraMax M5 (Molecular Devices). The binding characteristics of the various 2+1 anti-CD98hc bispecific antibodies to CD98hc (human, cyno, mouse) and control human TfR are summarized below in Table 16, shown as fold-change relative to isotype hIgG.

Cyno CD98hc ECD Avi-His = target: T2, Cyno CD98hc ECD Avi-His (cynomolgus macaque, UniProt P08195 105-529 (human entry))
T2 construct: biotinylated on the Avi tag where captured on streptavidin; also called Cyno CD98-AVI-His; Cyno CD98hc-AVI-His
T2 chain: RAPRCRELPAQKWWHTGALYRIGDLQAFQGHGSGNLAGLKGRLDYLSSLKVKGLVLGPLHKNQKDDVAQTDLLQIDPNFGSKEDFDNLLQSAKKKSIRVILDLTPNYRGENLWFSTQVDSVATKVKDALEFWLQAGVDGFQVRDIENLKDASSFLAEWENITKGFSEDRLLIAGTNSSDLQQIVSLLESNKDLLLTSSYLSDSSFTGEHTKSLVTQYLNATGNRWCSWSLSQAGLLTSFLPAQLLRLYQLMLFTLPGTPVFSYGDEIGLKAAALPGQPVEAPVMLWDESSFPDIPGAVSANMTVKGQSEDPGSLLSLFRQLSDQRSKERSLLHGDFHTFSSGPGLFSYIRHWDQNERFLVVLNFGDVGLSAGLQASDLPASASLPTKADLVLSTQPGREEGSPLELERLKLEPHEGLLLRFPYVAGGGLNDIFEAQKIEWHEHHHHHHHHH
Experimental: as §1

muCD98hc ECD Avi-His = target: T3, muCD98hc ECD Avi-His (mouse, UniProt P10852 100-526)
T3 construct: biotinylated on the Avi tag where captured on streptavidin; also called Mouse CD98-AVI-His; Mouse CD98hc-AVI-His
T3 sequence: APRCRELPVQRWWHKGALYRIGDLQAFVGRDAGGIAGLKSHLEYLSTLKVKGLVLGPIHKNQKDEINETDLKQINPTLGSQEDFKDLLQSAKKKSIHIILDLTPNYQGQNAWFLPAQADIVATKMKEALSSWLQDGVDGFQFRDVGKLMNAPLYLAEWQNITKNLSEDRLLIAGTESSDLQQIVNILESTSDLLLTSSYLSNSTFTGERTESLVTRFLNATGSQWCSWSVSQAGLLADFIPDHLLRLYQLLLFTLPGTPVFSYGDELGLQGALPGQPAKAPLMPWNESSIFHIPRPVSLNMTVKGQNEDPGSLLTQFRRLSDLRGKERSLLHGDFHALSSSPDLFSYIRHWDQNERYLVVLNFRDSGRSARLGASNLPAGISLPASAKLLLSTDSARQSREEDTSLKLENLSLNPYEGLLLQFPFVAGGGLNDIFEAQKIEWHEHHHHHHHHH
Experimental: as §1

[1] = target: T4, Human TfR-AVI-His (control) (human, UniProt P02786)
T4 construct: control protein; also called Avi-His-tagged human TfR; human transferrin receptor
T4 sequence (P02786 89-760 limits assumed): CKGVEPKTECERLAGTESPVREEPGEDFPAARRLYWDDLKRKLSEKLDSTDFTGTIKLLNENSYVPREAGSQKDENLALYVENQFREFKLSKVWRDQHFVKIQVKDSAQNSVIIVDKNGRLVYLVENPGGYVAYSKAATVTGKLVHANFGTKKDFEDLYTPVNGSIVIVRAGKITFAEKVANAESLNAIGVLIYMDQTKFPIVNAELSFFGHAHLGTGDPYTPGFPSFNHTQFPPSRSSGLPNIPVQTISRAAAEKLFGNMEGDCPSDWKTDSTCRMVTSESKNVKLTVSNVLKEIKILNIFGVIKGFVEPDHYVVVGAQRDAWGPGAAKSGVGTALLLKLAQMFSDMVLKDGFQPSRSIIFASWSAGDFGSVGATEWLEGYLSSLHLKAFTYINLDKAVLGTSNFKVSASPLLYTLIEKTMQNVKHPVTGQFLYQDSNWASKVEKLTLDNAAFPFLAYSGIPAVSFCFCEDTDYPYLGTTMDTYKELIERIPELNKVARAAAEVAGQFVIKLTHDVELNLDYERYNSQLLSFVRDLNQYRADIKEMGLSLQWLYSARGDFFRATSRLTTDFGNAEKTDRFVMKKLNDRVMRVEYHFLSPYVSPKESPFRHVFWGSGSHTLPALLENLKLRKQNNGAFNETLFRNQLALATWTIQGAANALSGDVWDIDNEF
Experimental: as §1

Row | Binder | ELISA fold-change relative to isotype hIgG (huCD98hc ECD Avi-His) | ELISA fold-change relative to isotype hIgG (Cyno CD98hc ECD Avi-His) | ELISA fold-change relative to isotype hIgG (muCD98hc ECD Avi-His) | ELISA fold-change relative to isotype hIgG [1]
1 | CD98hc.03.010 (2+1 bispecific antibody) (bispecific antibody) heavy 1: EVRLLESGGGLVQPGGSLRLSCAASGFTFSNYAMGWVRQAPGKGLEWVSAISGSGGSTYYADSVKGRFTTSRDDSKNALYLQMNSLRAEDTAVYYCARGGPGWYAADVWGQGTTVTVSSASTKGPSVFPLAPSSKSTSGGTAALGCLVKDYFPEPVTVSWNSGALTSGVHTFPAVLQSSGLYSLSSVVTVPSSSLGTQTYICNVNHKPSNTKVDKKV[here human IgG1 Fc with changes without letters]GGGGSGGGGSGGGGSEVQLQQSGTELVKPGASVKLSCTASGLDIKDTYLHWVKQRPEQGLEWIGKIDPANGNTKYNPKFQGKATITADTSSNTAYLQLSSLTSEDTAVHYCTTPYYSGSSYGDYWGQGTTLTVSSGGSEGKSSGSGSESKSTGGSQIVLTQSPAIMSASPGEKVTLTCSASSSVSSSYLYWYQQKPGSSPKLWIYSTSNLASGVPARFSGSGSGTSYSLTISSMEAEDAASYFCHQWSRYPLTFGAGTKLELK heavy 2: EVRLLESGGGLVQPGGSLRLSCAASGFTFSNYAMGWVRQAPGKGLEWVSAISGSGGSTYYADSVKGRFTTSRDDSKNALYLQMNSLRAEDTAVYYCARGGPGWYAADVWGQGTTVTVSS[here human IgG1 constant region with changes without letters] light: DIQMTQSPSSLSASVGDRVTITCRASQSISSYLNWYQQKPGKAPKLLIYAASSLQSGVPSRFSGSGSGTDFTLTISSLQPEDFATYYCQQADLPAFAFGGGTKVEIKRTVAAPSVFIFPPSDEQLKSGTASVVCLLNNFYPREAKVQWKVDNALQSGNSQESVTEQDSKDSTYSLSSTLTLSKADYEKHKVYACEVTHQGLSSPVTKSFNRGEC | 25.7 | 21.2 | 1.2 | 1.2
2 | CD98hc.03.031 (2+1 bispecific antibody) (bispecific antibody) heavy 1: EVRLLESGGGLVQPGGSLRLSCAASGFTFSNYAMGWVRQAPGKGLEWVSAISGSGGSTYYADSVKGRFTTSRDDSKNALYLQMNSLRAEDTAVYYCARGGPGWYAADVWGQGTTVTVSSASTKGPSVFPLAPSSKSTSGGTAALGCLVKDYFPEPVTVSWNSGALTSGVHTFPAVLQSSGLYSLSSVVTVPSSSLGTQTYICNVNHKPSNTKVDKKV[here human IgG1 Fc with changes without letters]GGGGSGGGGSGGGGSQVQLQQSGAELVRPGVSVKISCKASGYTFTDYAMHWVKQSHAKSLEWIGVISTYYGDTTYNQKFKDKATMTVDKSSSTAYLELARLTSEDSAIYYCARVWLLSYAMDNWGQGTSVTVSSGGSEGKSSGSGSESKSTGGSDIVMTQSQRFMSTSVGDGVRITCKASQNVRTAVAWYQQKPGQSPKALINLAPNRHTGVPDRFTARGSGTDFTLTISNVQSEDLADYFCLQHWNYPLTFGAGTKLELK heavy 2: EVRLLESGGGLVQPGGSLRLSCAASGFTFSNYAMGWVRQAPGKGLEWVSAISGSGGSTYYADSVKGRFTTSRDDSKNALYLQMNSLRAEDTAVYYCARGGPGWYAADVWGQGTTVTVSS[here human IgG1 constant region with changes without letters] light: DIQMTQSPSSLSASVGDRVTITCRASQSISSYLNWYQQKPGKAPKLLIYAASSLQSGVPSRFSGSGSGTDFTLTISSLQPEDFATYYCQQADLPAFAFGGGTKVEIKRTVAAPSVFIFPPSDEQLKSGTASVVCLLNNFYPREAKVQWKVDNALQSGNSQESVTEQDSKDSTYSLSSTLTLSKADYEKHKVYACEVTHQGLSSPVTKSFNRGEC | 19.6 | 18.5 | 1.7 | 1.4
3 | CD98hc.04.003 (2+1 bispecific antibody) (bispecific antibody) heavy 1: EVRLLESGGGLVQPGGSLRLSCAASGFTFSNYAMGWVRQAPGKGLEWVSAISGSGGSTYYADSVKGRFTTSRDDSKNALYLQMNSLRAEDTAVYYCARGGPGWYAADVWGQGTTVTVSSASTKGPSVFPLAPSSKSTSGGTAALGCLVKDYFPEPVTVSWNSGALTSGVHTFPAVLQSSGLYSLSSVVTVPSSSLGTQTYICNVNHKPSNTKVDKKV[here human IgG1 Fc with changes without letters]GGGGSGGGGSGGGGSQVQLQQSGAELAKPGASLKMSCKASGYTFTDYYIHWVKQRPGQDLEWIGYINPNSAYTDSNQKFKDKATLTADKSSNTAYMQLSSLTSEDSAVYYCARKGHFYAPSFAYWGQGTLVTVSAGGSEGKSSGSGSESKSTGGSDIQMTQTTSSLSASLGDRVTISCRASQDISNYLNWYQQKPDGTVKLLIYYTSRLHSGVPSRFSGSGSGADYSLTISNLQQEDIATYFCQQGDTLPYTFGGGTKLEIE heavy 2: EVRLLESGGGLVQPGGSLRLSCAASGFTFSNYAMGWVRQAPGKGLEWVSAISGSGGSTYYADSVKGRFTTSRDDSKNALYLQMNSLRAEDTAVYYCARGGPGWYAADVWGQGTTVTVSS[here human IgG1 constant region with changes without letters] light: DIQMTQSPSSLSASVGDRVTITCRASQSISSYLNWYQQKPGKAPKLLIYAASSLQSGVPSRFSGSGSGTDFTLTISSLQPEDFATYYCQQADLPAFAFGGGTKVEIKRTVAAPSVFIFPPSDEQLKSGTASVVCLLNNFYPREAKVQWKVDNALQSGNSQESVTEQDSKDSTYSLSSTLTLSKADYEKHKVYACEVTHQGLSSPVTKSFNRGEC | 30.1 | 28 | 1.1 | 1.1
4 | CD98hc.04.009 (2+1 bispecific antibody) (bispecific antibody) heavy 1: EVRLLESGGGLVQPGGSLRLSCAASGFTFSNYAMGWVRQAPGKGLEWVSAISGSGGSTYYADSVKGRFTTSRDDSKNALYLQMNSLRAEDTAVYYCARGGPGWYAADVWGQGTTVTVSSASTKGPSVFPLAPSSKSTSGGTAALGCLVKDYFPEPVTVSWNSGALTSGVHTFPAVLQSSGLYSLSSVVTVPSSSLGTQTYICNVNHKPSNTKVDKKV[here human IgG1 Fc with changes without letters]GGGGSGGGGSGGGGSQVQLKESGPGLVAPSQSLSITCTVSGFSLTSYGVHWVRQPPGKGLEWLGVIWAGGSTYYNSALMSRLSISKDNAKSQVLLKMSSLQTDDTAMYYCARDNYGGVYLDVWGAGTTVTVSSGGSEGKSSGSGSESKSTGGSENVLTQSPASMSASPGEKVTMTCRASSSVSSSYLHWYQQKSGASPKLWIYSTSNLASGVPARFSGSGSGTSYSLTISSVEAEDAATYYCQQYSGYPLTFGSGTKLEIK heavy 2: EVRLLESGGGLVQPGGSLRLSCAASGFTFSNYAMGWVRQAPGKGLEWVSAISGSGGSTYYADSVKGRFTTSRDDSKNALYLQMNSLRAEDTAVYYCARGGPGWYAADVWGQGTTVTVSS[here human IgG1 constant region with changes without letters] light: DIQMTQSPSSLSASVGDRVTITCRASQSISSYLNWYQQKPGKAPKLLIYAASSLQSGVPSRFSGSGSGTDFTLTISSLQPEDFATYYCQQADLPAFAFGGGTKVEIKRTVAAPSVFIFPPSDEQLKSGTASVVCLLNNFYPREAKVQWKVDNALQSGNSQESVTEQDSKDSTYSLSSTLTLSKADYEKHKVYACEVTHQGLSSPVTKSFNRGEC | 14.9 | 10.8 | 1.1 | 1.8
